The list shows a part of the results.

The target of this test is T1, MBP-FoxP1dN (Mus musculus, UniProt P58462 326-579).
T1 sequence: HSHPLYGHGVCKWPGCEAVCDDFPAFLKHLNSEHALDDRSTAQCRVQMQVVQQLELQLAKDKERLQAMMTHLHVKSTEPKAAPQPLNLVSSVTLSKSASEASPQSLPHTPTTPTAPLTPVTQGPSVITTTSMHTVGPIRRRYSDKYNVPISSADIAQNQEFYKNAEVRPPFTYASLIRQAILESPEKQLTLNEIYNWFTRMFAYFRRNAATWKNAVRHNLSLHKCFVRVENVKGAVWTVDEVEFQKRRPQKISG
The test is described as follows: PD-seq (MBP pull-down with sequencing); 20 mM Tris-HCl pH 7.5, 100 mM NaCl, 1.5 mM MgCl2, 0.4 uM protein, 0.1 uM dsDNA library, 30 min, room temperature, amylose pull-down; high values mean tight binding. The settings on record: protein: recombinant; tags: His6-MBP; chain copies: 2; dsDNA, one strand shown. An outline of the steps: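 Binding is given as reads-per-million enrichment, pull-down over input, with replicates pooled. The bait was an N-terminus-lacking mouse FoxP3 or FoxP1 fragment with a His6-MBP tag, expressed in E. coli and used at 0.4 µM with 0.1 µM Klenow-filled degenerate double-stranded DNA library for 30 min at room temperature in Tris pH 7.5 buffer with NaCl and MgCl2. Amylose resin pull-down with three washes was followed by proteinase K release, PCR barcoding and Illumina sequencing.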
Take “GATGATTGTTCTCCCAGCTGATGAATTAAGTGGATCGAGTAAACAAATTTTCCTAATCTTTCTGTTCAAGCGCCATCTAC”: the binding signal is 0.94 RPM ratio (pull-down/input).
For the sequence “GATGATTGTTCTCCCAGCTGATGAATTTTATTCCTCGAGTAAACAAATTTTCCTAATCTTTCTGTTCAAGCGCCATCTAC”, the binding signal is 0.973 RPM ratio (pull-down/input).
“GATGATTGTTCTCCCAGCTGATGAATTTTACCGCTCGAGTAAACAAATTTTCCTAATCTTTCTGTTCAAGCGCCATCTAC”: the binding signal was 0.864 RPM ratio (pull-down/input).
Take “GATGATTGTTCTCCCAGCTGATGAATTACGCTAGTCGAGTAAACAAATTTTCCTAATCTTTCTGTTCAAGCGCCATCTAC”: the binding signal is 1.01 RPM ratio (pull-down/input).
On to “GATGATTGTTCTCCCAGCTGATGAATTATCAGATTCGAGTAAACAAATTTTCCTAATCTTTCTGTTCAAGCGCCATCTAC”, for which the binding signal was 1.01 RPM ratio (pull-down/input).
With “GATGATTGTTCTCCCAGCTGATGAATTTTGTAAATCGAGTAAACAAATTTTCCTAATCTTTCTGTTCAAGCGCCATCTAC” the figure was 1.5 RPM ratio (pull-down/input); with “GATGATTGTTCTCCCAGCTGATGAATTAGCACCTTCGAGTAAACAAATTTTCCTAATCTTTCTGTTCAAGCGCCATCTAC”, 0.916 RPM ratio (pull-down/input); with “GATGATTGTTCTCCCAGCTGATGAATTGCCGGGATCGAGTAAACAAATTTTCCTAATCTTTCTGTTCAAGCGCCATCTAC”, 0.867 RPM ratio (pull-down/input).
With “GATGATTGTTCTCCCAGCTGATGAATTTTCGAACTCGAGTAAACAAATTTTCCTAATCTTTCTGTTCAAGCGCCATCTAC”, the binding signal is 0.878 RPM ratio (pull-down/input).
On to “GATGATTGTTCTCCCAGCTGATGAATTGCATCTATCGAGTAAACAAATTTTCCTAATCTTTCTGTTCAAGCGCCATCTAC”, for which the binding signal was 1.75 RPM ratio (pull-down/input).
For the sequence “GATGATTGTTCTCCCAGCTGATGAATTTAGAAGGTCGAGTAAACAAATTTTCCTAATCTTTCTGTTCAAGCGCCATCTAC”, the binding signal was 0.879 RPM ratio (pull-down/input).
Consider “GATGATTGTTCTCCCAGCTGATGAATTCGAACAGTCGAGTAAACAAATTTTCCTAATCTTTCTGTTCAAGCGCCATCTAC”, for which the binding signal was 0.783 RPM ratio (pull-down/input).
As to “GATGATTGTTCTCCCAGCTGATGAATTCCTTGTGTCGAGTAAACAAATTTTCCTAATCTTTCTGTTCAAGCGCCATCTAC”, the binding signal is 0.961 RPM ratio (pull-down/input).
For “GATGATTGTTCTCCCAGCTGATGAATTCCTTGATTCGAGTAAACAAATTTTCCTAATCTTTCTGTTCAAGCGCCATCTAC”, the binding signal was 0.833 RPM ratio (pull-down/input).
Consider “GATGATTGTTCTCCCAGCTGATGAATTCCATCATTCGAGTAAACAAATTTTCCTAATCTTTCTGTTCAAGCGCCATCTAC”, for which the binding signal is 0.931 RPM ratio (pull-down/input).
With “GATGATTGTTCTCCCAGCTGATGAATTCAACAGCTCGAGTAAACAAATTTTCCTAATCTTTCTGTTCAAGCGCCATCTAC”, the binding signal is 0.893 RPM ratio (pull-down/input).
Consider “GATGATTGTTCTCCCAGCTGATGAATTATATTCATCGAGTAAACAAATTTTCCTAATCTTTCTGTTCAAGCGCCATCTAC”, for which the binding signal is 1.12 RPM ratio (pull-down/input).
With “GATGATTGTTCTCCCAGCTGATGAATTATTACCATCGAGTAAACAAATTTTCCTAATCTTTCTGTTCAAGCGCCATCTAC” the figure was 1.22 RPM ratio (pull-down/input); with “GATGATTGTTCTCCCAGCTGATGAATTACCCTAGTCGAGTAAACAAATTTTCCTAATCTTTCTGTTCAAGCGCCATCTAC”, 1.01 RPM ratio (pull-down/input); with “GATGATTGTTCTCCCAGCTGATGAATTGTAGGGGTCGAGTAAACAAATTTTCCTAATCTTTCTGTTCAAGCGCCATCTAC”, 0.93 RPM ratio (pull-down/input).
With “GATGATTGTTCTCCCAGCTGATGAATTCCTGGAATCGAGTAAACAAATTTTCCTAATCTTTCTGTTCAAGCGCCATCTAC”, the binding signal is 0.855 RPM ratio (pull-down/input).
On to “GATGATTGTTCTCCCAGCTGATGAATTTGGCAAGTCGAGTAAACAAATTTTCCTAATCTTTCTGTTCAAGCGCCATCTAC”, for which the binding signal was 0.823 RPM ratio (pull-down/input).
Regarding “GATGATTGTTCTCCCAGCTGATGAATTGTCGAAATCGAGTAAACAAATTTTCCTAATCTTTCTGTTCAAGCGCCATCTAC”, the binding signal was 1.21 RPM ratio (pull-down/input).
As for “GATGATTGTTCTCCCAGCTGATGAATTCACAACATCGAGTAAACAAATTTTCCTAATCTTTCTGTTCAAGCGCCATCTAC”, the binding signal is 2.11 RPM ratio (pull-down/input).
Regarding “GATGATTGTTCTCCCAGCTGATGAATTCAACGGCTCGAGTAAACAAATTTTCCTAATCTTTCTGTTCAAGCGCCATCTAC”, the binding signal is 0.836 RPM ratio (pull-down/input).
“GATGATTGTTCTCCCAGCTGATGAATTAATACGGTCGAGTAAACAAATTTTCCTAATCTTTCTGTTCAAGCGCCATCTAC”: the binding signal was 0.951 RPM ratio (pull-down/input).
As to “GATGATTGTTCTCCCAGCTGATGAATTTTCGAATTCGAGTAAACAAATTTTCCTAATCTTTCTGTTCAAGCGCCATCTAC”, the binding signal is 0.988 RPM ratio (pull-down/input).
Regarding “GATGATTGTTCTCCCAGCTGATGAATTCACTAGATCGAGTAAACAAATTTTCCTAATCTTTCTGTTCAAGCGCCATCTAC”, the binding signal is 0.873 RPM ratio (pull-down/input).
On to “GATGATTGTTCTCCCAGCTGATGAATTTTCAAGTTCGAGTAAACAAATTTTCCTAATCTTTCTGTTCAAGCGCCATCTAC”, for which the binding signal is 0.899 RPM ratio (pull-down/input).
Take “GATGATTGTTCTCCCAGCTGATGAATTCAGGGTTTCGAGTAAACAAATTTTCCTAATCTTTCTGTTCAAGCGCCATCTAC”: the binding signal is 0.847 RPM ratio (pull-down/input).
Then “GATGATTGTTCTCCCAGCTGATGAATTGACGGGATCGAGTAAACAAATTTTCCTAATCTTTCTGTTCAAGCGCCATCTAC”, with 0.943 RPM ratio (pull-down/input); and “GATGATTGTTCTCCCAGCTGATGAATTTAAGTCATCGAGTAAACAAATTTTCCTAATCTTTCTGTTCAAGCGCCATCTAC”, with 1.04 RPM ratio (pull-down/input).

(Values after publication PMC12820563, “FoxP3 forms a head-to-head dimer in vivo and stabilizes its multimerization on adjacent microsatellites”.)
